In PMC7819943, “Rice protein-binding microarrays: a tool to detect cis-acting elements near promoter regions in rice”:
The list shows a part of the results.

Each sequence was assayed against T1, OsWOX13 (Oryza sativa, UniProt Q5QMM3 1-267) (assay: protein-binding microarray (RPBM); PBS, 2% BSA, 51.3 ng/ul salmon testes DNA, 50 uM zinc acetate, 200 nM TF, 25 C, 1 h; high values mean tight binding). Conditions: protein: recombinant; tags: N-terminal polyhistidine and DsRed monomer fusion (pET32a); label: CyDye5-dUTP incorporated in the synthesized complementary strand; 3' TTTTT single-stranded linker to array surface; dsDNA, one strand shown.
T1 sequence: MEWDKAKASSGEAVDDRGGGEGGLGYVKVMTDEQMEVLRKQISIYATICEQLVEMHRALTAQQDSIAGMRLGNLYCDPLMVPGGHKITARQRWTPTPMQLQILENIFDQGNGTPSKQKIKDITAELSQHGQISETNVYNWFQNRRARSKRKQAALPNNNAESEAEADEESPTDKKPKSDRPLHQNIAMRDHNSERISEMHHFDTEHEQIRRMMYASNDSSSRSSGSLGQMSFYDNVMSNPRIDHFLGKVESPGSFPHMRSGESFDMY
Method in brief: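 Transcription factors were made in E. coli BL21-CodonPlus as N-terminal fusions to a polyhistidine tag and DsRed, then purified on Ni–NTA. After primer extension with Cy5-dUTP and blocking with 2% BSA, a custom Agilent array was exposed for 1 h at 25 °C to 200 nM protein in PBS, 2% BSA, salmon testes DNA and 50 µM zinc acetate. Washed arrays were scanned on an Axon 4000B, and the binding signal is per-feature fluorescence intensity in arbitrary units.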

| Sequence | binding signal |
| --- | --- |
| CAAAATAGACAATTTTGAAAGTTAGAGACTAAATCAATACCGGAGTCACCTAGTGCAG | 6780 fluorescence intensity (a.u.) |
| GTCCAATCTACTGGTCATCATCTTGCCAGTGTGCCATGTGCGGAGTCACCTAGTGCAG | 3320 fluorescence intensity (a.u.) |
| ATTCAATTAGCCTATATAATAACGCGTAACCACAGCCTCTCGGAGTCACCTAGTGCAG | 20300 fluorescence intensity (a.u.) |
| ACTGTGATTGCCACGGAGGATATGCTTCCATATGGGCCCCCGGAGTCACCTAGTGCAG | 11000 fluorescence intensity (a.u.) |
| GTCTATCTATCTATCTATCCATCTACTCACTCCATCCTAACGGAGTCACCTAGTGCAG | 3170 fluorescence intensity (a.u.) |
| TCTCTCCTGATTAGCCATGAGCAAGATGATGATCACCAGCCGGAGTCACCTAGTGCAG | 8700 fluorescence intensity (a.u.) |
| CACTTCAATTATTTAAAGTAGTTCTTTTGCCTAAGGGTAGCGGAGTCACCTAGTGCAG | 11100 fluorescence intensity (a.u.) |
| TTCAAATCACAATTACTACTCCATTAGCATATCTGAAACACGGAGTCACCTAGTGCAG | 6020 fluorescence intensity (a.u.) |
| AGGTTGATGAAGTTTTATAGAATTGACCTGGAGGGCCATGCGGAGTCACCTAGTGCAG | 4200 fluorescence intensity (a.u.) |
| AGAGGATTGAAGAAAGAATCCCATAGTGATCGATCGAGACCGGAGTCACCTAGTGCAG | 4050 fluorescence intensity (a.u.) |
| TAAAATTGAACTTATTTTGGGACAGGGCAGCAGCAGTGAGCGGAGTCACCTAGTGCAG | 14000 fluorescence intensity (a.u.) |
| TCTTGACAAACTTAGCGACAAAATTTACCTAGCTGCTGTGCGGAGTCACCTAGTGCAG | 4740 fluorescence intensity (a.u.) |
| TCTGGTTGATTGATCGATTTGGGGAATTGGGGATCTAGCTCGGAGTCACCTAGTGCAG | 38600 fluorescence intensity (a.u.) |
| ATTATTCAATTACATTTGATGAAATTTTGAAAAGTTTTAGCGGAGTCACCTAGTGCAG | 28700 fluorescence intensity (a.u.) |
| CTGGAAATTTCTTTCCTGATTTAATAAGCATGTACTCCCTCGGAGTCACCTAGTGCAG | 9170 fluorescence intensity (a.u.) |
| GGGGTGATTATGATCCAGGAATGGTGCGCTGTGGTGGATTCGGAGTCACCTAGTGCAG | 17200 fluorescence intensity (a.u.) |
| ATTCAAGATTGGATGAAGGATGACACCTCGACGTAGATATCGGAGTCACCTAGTGCAG | 7320 fluorescence intensity (a.u.) |
| CTAAATTTGATAAATATATAAGAAATCGTACTAAAATTTTCGGAGTCACCTAGTGCAG | 6380 fluorescence intensity (a.u.) |
| TTTTAGGTTAATTACTTCTATTGGTCAACTCAATATGCAGCGGAGTCACCTAGTGCAG | 5660 fluorescence intensity (a.u.) |
| AAATAATTTATGAATAAAACTTTTATCTACGTGTTCTTAACGGAGTCACCTAGTGCAG | 9010 fluorescence intensity (a.u.) |
| TTGCTAATGACGGATTAATTAGGCTTAATAAATTCGTCTCCGGAGTCACCTAGTGCAG | 33900 fluorescence intensity (a.u.) |
| GGAAACATATAAATGGGAAACTAACATGTTAAGATTATCCCGGAGTCACCTAGTGCAG | 4120 fluorescence intensity (a.u.) |
| TACTTAATTAAGACTACACTAATGCATGATTCGTTTTGCTCGGAGTCACCTAGTGCAG | 35100 fluorescence intensity (a.u.) |
| GGATAGACAGTTTCCTTTGATCATGTGACGTTTGATTATTCGGAGTCACCTAGTGCAG | 5900 fluorescence intensity (a.u.) |
| CCATTACTAAATTAAATAGGCCAGATTCTCTCTCACACCCCGGAGTCACCTAGTGCAG | 5660 fluorescence intensity (a.u.) |
| CGGGATAGACAGATGGTGGCTCCGTAATTTTGAATCCCTTCGGAGTCACCTAGTGCAG | 22200 fluorescence intensity (a.u.) |
| GCCATAATTGGTAGGAACACCTGCAAGAAAACATCATATGCGGAGTCACCTAGTGCAG | 34200 fluorescence intensity (a.u.) |

| Sequence | binding signal |
| --- | --- |
| TTAGAAAATTGATCGAATTTCGAGCTAACTAACATCAAATCGGAGTCACCTAGTGCAG | 3900 fluorescence intensity (a.u.) |
| ATCTGAACAGGCAGTCAATTTGGATTCGTAGTACTAGAAACGGAGTCACCTAGTGCAG | 3280 fluorescence intensity (a.u.) |
| GTGCTAATATAATTTAAATAACTAGTTTGACGGACAAATCCGGAGTCACCTAGTGCAG | 10800 fluorescence intensity (a.u.) |
| TCTAATTGGCTTACTTAATATGATTCGATCCTACAACCTCCGGAGTCACCTAGTGCAG | 53700 fluorescence intensity (a.u.) |
| CATCCTTAATCCATCAATTTATATTACTATTATTATTCCACGGAGTCACCTAGTGCAG | 5450 fluorescence intensity (a.u.) |
| TTCGAATCTCTGATTGGGAGTTCAGGTCAGAGACGTTCAGCGGAGTCACCTAGTGCAG | 14700 fluorescence intensity (a.u.) |
| ATGTAAATTTTGGAGGAAATTTAACCTCATGAGTCTCTCTCGGAGTCACCTAGTGCAG | 8190 fluorescence intensity (a.u.) |
| ACAAATAGAATTGCTGATGAGAGCTTAAACATTATTGCACCGGAGTCACCTAGTGCAG | 8840 fluorescence intensity (a.u.) |
| ATGACGTGATTGACGGCAGGGTTGTTGGACGGCAGCCTTTCGGAGTCACCTAGTGCAG | 48300 fluorescence intensity (a.u.) |
| TCATAAATTAATAGCTCCCTATTAATTTAATTCTAAAATTCGGAGTCACCTAGTGCAG | 13900 fluorescence intensity (a.u.) |
| CAGATAGGCGGAAAATTGATTAAAGTTTGATGAAATAGTCCGGAGTCACCTAGTGCAG | 27500 fluorescence intensity (a.u.) |
| AAATATAAAATATTTTAATTAGATGGAATACATCGTTATACGGAGTCACCTAGTGCAG | 5450 fluorescence intensity (a.u.) |
| CAAATTACTAAAGCTAAAATATATTTAATTTATTGTACATCGGAGTCACCTAGTGCAG | 3280 fluorescence intensity (a.u.) |
| TTTCCATTAATAAATTGAAACATATTGAACTAGATCGTTCCGGAGTCACCTAGTGCAG | 15600 fluorescence intensity (a.u.) |
| AAAATGATTTTATAATTTCTGGCAGGTAGCAATAATTGGCCGGAGTCACCTAGTGCAG | 23500 fluorescence intensity (a.u.) |
| GTAGATTAGGAGGTGAAAATGAAGGTGCAAGTAGAGGACTCGGAGTCACCTAGTGCAG | 3620 fluorescence intensity (a.u.) |
| CAATAATTAGAGTAATCTAATAGTACTACTACCACAGTAGCGGAGTCACCTAGTGCAG | 20400 fluorescence intensity (a.u.) |
| AACATCCGCTTGATTACCAAACTCGCTTAGCAAAACTTGGCGGAGTCACCTAGTGCAG | 4870 fluorescence intensity (a.u.) |
| TATATATATATATATATATATATATATATATATATGTATGCGGAGTCACCTAGTGCAG | 12400 fluorescence intensity (a.u.) |
| CATGAACCTGTTACTTAATTATAGATAGCACTCATGAAGCCGGAGTCACCTAGTGCAG | 4510 fluorescence intensity (a.u.) |
| AAATAAGATGTGATTAATGAGACAAATAGATATATATCGTCGGAGTCACCTAGTGCAG | 5020 fluorescence intensity (a.u.) |
| GGTTAGATTTAAATGTTGCAGTGGGGTTTTCGATGGTGTTCGGAGTCACCTAGTGCAG | 9930 fluorescence intensity (a.u.) |
| CTTTGACAAGTTCTGGGAACTGGATATGCATTTTGAGAGTCGGAGTCACCTAGTGCAG | 3980 fluorescence intensity (a.u.) |
| GTCACAATTAAAGTTATTCGTAATAGACATTCTGGAGTTTCGGAGTCACCTAGTGCAG | 7100 fluorescence intensity (a.u.) |
| GTTAATTAATTCCCCTCCGTTTCTCACGGCCTCATGGCCACGGAGTCACCTAGTGCAG | 41200 fluorescence intensity (a.u.) |
| TTAGTTTAATTAAATGTAACATTGAGTATATTTTGATAATCGGAGTCACCTAGTGCAG | 16700 fluorescence intensity (a.u.) |
| AATGACTGGAGTGAGTTAGCATGCTCGGATGGAGTGGCAACGGAGTCACCTAGTGCAG | 6780 fluorescence intensity (a.u.) |
